{"source": "the supplement of paper PMC11417369", "note": "This is one part of the list."}
{"test_system": "PfHDP1 homeodomain (GST-tagged)", "assay": "gcPBM binding intensity (ln(normalized median fluorescence intensity)); higher = stronger DNA binding", "summary_of_the_method": "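The highest Masliner-normalised natural-log median intensity across replicate spots of either probe orientation is reported as binding intensity. GST-tagged P. falciparum DNA-binding domains expressed in E. coli were applied for 1 h to an Agilent 4 × 180k array of primer-extended double-stranded 36-bp intergenic genomic probes plus negative controls, and bound protein was detected with Alexa488 anti-GST antibody and scanned at 488 nm.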"}
{"sequence": "TATATTTATATATTAGTGCACTTTTTGTTAATTTTT", "gcPBM binding intensity (ln)": 10.3}
{"sequence": "TACATATTTGTATATGCACACATAAATTTTTCCATT [CACACA_site9148]", "gcPBM binding intensity (ln)": 9.69}
{"sequence": "AAATATTTATACCACACACACATACCTCTATTTGTA [CACACA_site6957]", "gcPBM binding intensity (ln)": 6.61}
{"sequence": "AAATAAAATCATGAATGTACACAAAAATTATTGCAA [XGTACX_site5691]", "gcPBM binding intensity (ln)": 6.99}
{"sequence": "TTTGAAGGAAGGGGGGGAGGGGCCATAACAAAGGAA [GTGCAC_negctrl_site408]", "gcPBM binding intensity (ln)": 8.09}
{"sequence": "TATTTTAGAGAAAAAAATAAATTACAAAATGTTAGG [CACACA_negctrl_site1645]", "gcPBM binding intensity (ln)": 6.2}
{"sequence": "ACTGTACTATAAAATACACACATATAAATATAAATA [CACACA_site3009]", "gcPBM binding intensity (ln)": 6.69}
{"sequence": "TTAAATATCCATATTTCACACATTTCGATATATATA [CACACA_site4208]", "gcPBM binding intensity (ln)": 6.31}
{"sequence": "GAATGTAAATATTAAAGTACACAGAATATATCTTCA [XGTACX_site8149]", "gcPBM binding intensity (ln)": 6.4}
{"sequence": "TATAATATTATATAATGTACGCATTTATTATTTAAA [XGTACX_site8326]", "gcPBM binding intensity (ln)": 6.28}
{"sequence": "ATAATGTCATAATTATATCCTTTGGCATAAAATAAA [XGTACX_negctrl_site574]", "gcPBM binding intensity (ln)": 6}
{"sequence": "CCTAAATAAATGGACACACACATATTTATATTTATA [CACACA_site6789]", "gcPBM binding intensity (ln)": 6.44}
{"sequence": "TATTTGTATATTCATTCCTGTATTCCCTTTTTTGTA [CACACA_negctrl_site1236]", "gcPBM binding intensity (ln)": 6.73}
{"sequence": "TGTACGTTTTTTAACACACACACAAAAAAAAAAAAA [CACACA_site6006]", "gcPBM binding intensity (ln)": 6.46}
{"sequence": "ATATATATATATGTATGTACATAATATTTTTTTTAT [XGTACX_site5551]", "gcPBM binding intensity (ln)": 8.98}
{"sequence": "AAAAAAAAAAAAAATACACACAAATAATAAAAATAA [CACACA_site1431]", "gcPBM binding intensity (ln)": 6.48}
{"sequence": "ATACCATATAATTATGTGAGAAAATATAATATTCAT [CACACA_negctrl_site310]", "gcPBM binding intensity (ln)": 6.55}
{"sequence": "ATTTTCTTAAATAAATGTACATGGCATTAAAAGTAA [XGTACX_site5119]", "gcPBM binding intensity (ln)": 6.64}
{"sequence": "AAAAAAGATATATAAACACACATATTTATATACACA [CACACA_site6866]", "gcPBM binding intensity (ln)": 6.24}
{"sequence": "GATAGACACGTGCACACATGCAATACTTTATTCAGT [TGCATGCA_site778]", "gcPBM binding intensity (ln)": 10}
{"sequence": "ATAAATAACTTTTAAATACACACGTAAAATATATTG [CACACA_site3302]", "gcPBM binding intensity (ln)": 6.58}
{"sequence": "ATTTATATTATGAGGAGTACAATACTTATAGATGTA [XGTACX_site7510]", "gcPBM binding intensity (ln)": 6.44}
{"sequence": "TATATACGTAATAGTAGTACTTTAAAATGCGGAAAT [XGTACX_site4597]", "gcPBM binding intensity (ln)": 7.02}
{"sequence": "TGTACGAGTCGTAGAGTGCAGTCTGGAGAAACGTAC [GTGCAC_site9682]", "gcPBM binding intensity (ln)": 6.92}
{"sequence": "TTTAACAACTATTTCTGTACACATTTTTATATAATT [XGTACX_site4917]", "gcPBM binding intensity (ln)": 7.1}
{"sequence": "TGAACCCACAAATCACGTACATATATATACACGTGT [XGTACX_site7739]", "gcPBM binding intensity (ln)": 6.54}
{"sequence": "ATATACATTTTAAATTTTAATGTAACCCATGGGAGA [CACACA_negctrl_site588]", "gcPBM binding intensity (ln)": 6.3}
{"sequence": "TATAATATATATGTATGTACGTATGTATGATTTTGT [XGTACX_site1164]", "gcPBM binding intensity (ln)": 6.69}
{"sequence": "AAGAAAAATTCTTCACGTACAAATAATTATATATAT [XGTACX_site7217]", "gcPBM binding intensity (ln)": 6.78}
{"sequence": "TTTATAATTTATAGGCGGACAGGAAAATTTTATAAA [XGTACX_site6955]", "gcPBM binding intensity (ln)": 6.95}
{"sequence": "TTTTTTAAATATATATGTACATATATCTATATATAT [XGTACX_site3461]", "gcPBM binding intensity (ln)": 6.66}
{"sequence": "GCAAGGTCCACACTGGTGCATTAAAAATAAAATATA [GTGCAC_site9956]", "gcPBM binding intensity (ln)": 10.4}
{"sequence": "AAATTACAAATAAAATGTACTCATGTTTTTATTATA [XGTACX_site7223]", "gcPBM binding intensity (ln)": 6.13}
{"sequence": "TTTTTAATTTTTTTCACACATATATAAATACAAATA [CACACA_site5530]", "gcPBM binding intensity (ln)": 6.5}
{"sequence": "TACAGGAATATTTTTACACACTAAAAGTTATAAACT [CACACA_site6876]", "gcPBM binding intensity (ln)": 6.13}
{"sequence": "TTTTTCTTTTTTTGTTGTACATTTTGTAATATTTAC [XGTACX_site4102]", "gcPBM binding intensity (ln)": 6.62}
{"sequence": "TGAACAGGTCATAATTTACACACTATATATTTTATT [CACACA_site8123]", "gcPBM binding intensity (ln)": 6.24}
{"sequence": "TATTCCCCCCAACACACACACACACCGACATACCAC [CACACA_site8723]", "gcPBM binding intensity (ln)": 7.75}
{"sequence": "GAATTATATACTTATTGTACAAAAAAAAAAAAAAAA [XGTACX_site3193]", "gcPBM binding intensity (ln)": 6.12}
{"sequence": "ATAAACATGTATATATTAAAAAAAAAAAAAAAAAAT [CACACA_negctrl_site92]", "gcPBM binding intensity (ln)": 6.42}
{"sequence": "TTATTTATATATTGCCCACACACATGTGATTATTTA [CACACA_site1715]", "gcPBM binding intensity (ln)": 6.84}
{"sequence": "AATATTTTTTGTTTTACACACATATATAAATATATA [CACACA_site3602]", "gcPBM binding intensity (ln)": 6.69}
{"sequence": "AAGTTTAAAGGAATTACACAAACAAGCAAATATATA [CACACA_negctrl_site857]", "gcPBM binding intensity (ln)": 6.92}
{"sequence": "GTAAAATAAATAATATAAATAAAATGAAATGAAACA [TGCATGCA_negctrl_site519]", "gcPBM binding intensity (ln)": 6.75}
{"sequence": "ATTTTTTTTTTTTTTTTTAATTTATGTTGTTATTTT [CACACA_negctrl_site944]", "gcPBM binding intensity (ln)": 6.25}
{"sequence": "ATTATATAATAATAAAGTACTAATATTTTTAAAAGA [XGTACX_site235]", "gcPBM binding intensity (ln)": 6.44}
{"sequence": "GAACCGTTTTTATGTAGTACATATGTATATATATAT [XGTACX_site1577]", "gcPBM binding intensity (ln)": 8.69}
{"sequence": "TAATATATTAAAAGAAGTACATTTCTGATTTAATAG [XGTACX_site6403]", "gcPBM binding intensity (ln)": 5.9}
{"sequence": "AGTAAATATATTATATGTACGTATCATAAAATATAT [XGTACX_site1567]", "gcPBM binding intensity (ln)": 6.38}
{"sequence": "TTAATATTAAAATATAAACACACAAAATTCAATTAT [CACACA_site9262]", "gcPBM binding intensity (ln)": 6.49}
{"sequence": "TTTCTTATATTATATAAATATATAGATGTTAATGGT [CACACA_negctrl_site706]", "gcPBM binding intensity (ln)": 6.56}
{"sequence": "AATATAATATAATGCACACATAAAAAAAAAAAAAAA [CACACA_site304]", "gcPBM binding intensity (ln)": 10.9}
{"sequence": "TATTACAAAAATGTGTTATTATATAAACGTATAGAG [XGTACX_negctrl_site529]", "gcPBM binding intensity (ln)": 6.66}
{"sequence": "TTTATTCTCCGACACACACACATATATTTATTTATA [CACACA_site7377]", "gcPBM binding intensity (ln)": 7.09}
{"sequence": "AAATTAGAATTAGGAACACACATATTTATATTTATA [CACACA_site7450]", "gcPBM binding intensity (ln)": 6.27}
{"sequence": "ATATATAAAAAATGTGGTACATTCATTTATTATACA [XGTACX_site3495]", "gcPBM binding intensity (ln)": 5.95}
